From paper PMC11446229

Biological target: T1, IscS, cysteine desulfurase of the ISC system (E. coli), P0A6B7
T1 chain: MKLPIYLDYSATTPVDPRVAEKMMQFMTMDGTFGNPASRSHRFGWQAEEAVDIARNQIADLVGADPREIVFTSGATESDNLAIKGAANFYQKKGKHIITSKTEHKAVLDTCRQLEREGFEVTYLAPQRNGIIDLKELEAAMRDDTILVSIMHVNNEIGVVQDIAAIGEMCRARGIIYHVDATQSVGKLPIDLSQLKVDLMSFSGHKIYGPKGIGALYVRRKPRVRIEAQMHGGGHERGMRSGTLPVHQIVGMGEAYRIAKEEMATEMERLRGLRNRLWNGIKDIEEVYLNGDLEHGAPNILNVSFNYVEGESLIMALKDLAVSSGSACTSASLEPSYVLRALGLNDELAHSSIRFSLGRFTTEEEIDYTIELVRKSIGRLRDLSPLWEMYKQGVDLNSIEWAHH
Assay: native MS; desulfurase alone, ~8 uM (~4 uM dimer), 250 mM ammonium acetate pH 8.0, deconvoluted spectrum
Settings: remark: other sources report otherwise

stoichiometry N: 2
B1: IscS, cysteine desulfurase of the ISC system, P0A6B7 1-404 (enzyme)
chain: MKLPIYLDYSATTPVDPRVAEKMMQFMTMDGTFGNPASRSHRFGWQAEEAVDIARNQIADLVGADPREIVFTSGATESDNLAIKGAANFYQKKGKHIITSKTEHKAVLDTCRQLEREGFEVTYLAPQRNGIIDLKELEAAMRDDTILVSIMHVNNEIGVVQDIAAIGEMCRARGIIYHVDATQSVGKLPIDLSQLKVDLMSFSGHKIYGPKGIGALYVRRKPRVRIEAQMHGGGHERGMRSGTLPVHQIVGMGEAYRIAKEEMATEMERLRGLRNRLWNGIKDIEEVYLNGDLEHGAPNILNVSFNYVEGESLIMALKDLAVSSGSACTSASLEPSYVLRALGLNDELAHSSIRFSLGRFTTEEEIDYTIELVRKSIGRLRDLSPLWEMYKQGVDLNSIEWAHH
